Laboratory results as given in PubChem BioAssay AID1159580 (chemical genetic matrix, 2015).
In all, about 5,500 compounds went through this assay and about 2,000 (36%) were called active. This list was built around the results that the source calls inconclusive (neither active nor inactive); the mix of calls is not that of the screen. Rule as the data show it: active = normalized growth mostly below about 0.91 (no sharp cut-off); inconclusive = no clear call, values can overlap the other calls; inactive = mostly above about 0.92. Some compounds were tested as several samples or in several runs, with calls that do not always agree.

Assay: chemical genetic growth profiling, strain panel (AID 1159580);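 also: tested at 20 µM; growth read once vehicle control cultures reached saturation at 30 °C; 1 = growth at the plate median or of vehicle wells; lower values mean less growth of the strain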
Conditions: S. cerevisiae deletion strains, growth OD
[1] = locus YMR263W, strain SAP30, active compounds read low
[2] = locus YNL175C, strain NOP13, active compounds read low
[3] = locus YDR054C, strain cdc34, active compounds read low
[4] = locus YJL128C, strain PBS2, active compounds read low
[5] = locus YPR106W, strain ISR1, active compounds read low
[6] = locus YEL061C, strain CIN8, active compounds read low

CC(C)(C)NCC(O)c1cc(O)cc(O)c1 (stereo not drawn)
normalized growth (locus YDL185W, strain tfp1, active compounds read low): inconclusive: 0.639 [sensitive] | normalized growth (locus YNL250W, strain rad50, active compounds read low): inconclusive: 0.886 [sensitive]

O=C(CSCc1c(F)cccc1Cl)Nc1ccc(F)c(Cl)c1
normalized growth [1]: inconclusive: 0.862 [sensitive]

Nc1cc(-c2ccncc2)c[nH]c1=O
normalized growth (locus YLR371W, strain rom2, active compounds read low): inconclusive: 0.886 [sensitive]

COc1ccc2c(c1OC)C(=O)O[C@H]2[C@@H]1c2cc3c(cc2CCN1C)OCO3
normalized growth [2]: inconclusive: 0.569 [sensitive]

CCCCCCCCCCCCCCCC[n+]1ccccc1
normalized growth (locus YOL012C, strain htz1): inconclusive: 0.195 [sensitive]

CCCCCCCCCCCCCCCCCC(=O)OC(CC(=O)O)C[N+](C)(C)C (stereo not drawn)
normalized growth (locus YOL012C, strain htz1): inconclusive: 0.194 [sensitive]

CCCCCCCCCCCCSc1ncn[nH]1
normalized growth (locus YKL101W, strain HSL1, active compounds read low): inconclusive: 0.705 [sensitive]

O=C(Nc1cc(-c2ccccc2)[nH]n1)c1ccccc1
normalized growth [1]: inconclusive: 0.864 [sensitive]

Cc1ccc2nc(-c3ccc([N+](=O)[O-])o3)oc(=O)c2c1
normalized growth (locus YDL108W, strain KIN28, active compounds read low): inconclusive: 0.775 [sensitive] | normalized growth (locus YDL132W, strain cdc53, active compounds read low): inconclusive: 0.559 [sensitive] | normalized growth (locus YDR052C, strain DBF4, active compounds read low): inconclusive: 0.867 [sensitive] | normalized growth [3]: inconclusive: 0.528 [sensitive] | normalized growth (locus YFR003C, strain YPI1, active compounds read low): inconclusive: 0.559 [sensitive] | normalized growth [4]: inconclusive: 0.495 [sensitive] | normalized growth [5]: inconclusive: 0.672 [sensitive]

O=c1c(O)c(-c2ccccc2)oc2ccc3occc3c12
normalized growth (locus YHR129C, strain ARP1, active compounds read low): inconclusive: 0.911 [sensitive]

Cc1cc(OC(=O)c2c(C)cc(OC(=O)c3c(C)cc(O)cc3O)cc2O)cc(O)c1C(=O)O
normalized growth [6]: inconclusive: 0.547 [sensitive]

O=P1(N(CCCl)CCCl)NCCCO1 (stereo not drawn)
normalized growth (locus YOL012C, strain htz1): inconclusive: 2.41 [resistant]

COC(=O)C(C)c1ccc(C(=O)c2cccs2)cc1 (stereo not drawn)
normalized growth (locus YIL125W, strain kgd1, active compounds read low): inconclusive: 0.905 [sensitive]

O=C1C2C=CC=CC2=NC(=S)N1CCN1CCC(=C(c2ccc(F)cc2)c2ccc(F)cc2)CC1 (stereo not drawn)
normalized growth [2]: inconclusive: 1.1 [resistant]

CCOC(=O)c1c(C)n(-c2ccccc2)c2ccc(O)cc12
normalized growth (locus YNL298W, strain CLA4 (second series), active compounds read low): inconclusive: 1.24 [resistant]

c1ccc2[nH]c(-c3cscn3)nc2c1
normalized growth (locus YDR001C, strain nth1, active compounds read low): inconclusive: 0.889 [sensitive]

CC1(C)CCC2(C(=O)O)CCC3(C)C(=CCC4C5(C)CCC(O)C(C)(C)C5C(O)CC43C)C2C1 (stereo not drawn)
normalized growth (locus YEL061C, strain CIN8 (second series), active compounds read low): inconclusive: 1.1 [resistant]

O=S(=O)(O)CCS
normalized growth (locus YCL011C, strain gbp2, active compounds read low): inconclusive: 0.864 [sensitive]

Nc1c2ccccc2nc2ccccc12 (tested in a mixture with another compound)
normalized growth (locus YDR195W, strain ref2): inconclusive: 1.15 [resistant] | normalized growth (locus YHR094C, strain hxt1, active compounds read low): inconclusive: 0.911 [sensitive]

Cc1ccc2nc3c(nc2c1)-c1ccccc1C3=O
normalized growth [3]: inconclusive: 0.864 [sensitive] | normalized growth [4]: inconclusive: 0.776 [sensitive] | normalized growth [5]: inconclusive: 0.827 [sensitive]

O=C(CCn1c(=O)oc2ccccc21)Sc1ccc(C(F)(F)F)cc1
normalized growth (locus YOR231W, strain MKK1, active compounds read low): inconclusive: 0.57 [sensitive]

COc1ccc(C(=O)/C=C/c2ccccc2)cc1
normalized growth [6]: inconclusive: 0.918 [sensitive]

C=C1C2CCC3(C)C(c4ccoc4)OC(=O)CC13OC1CC(OC(C)=O)C(C)(C)C(CC(=O)OC)C12C (stereo not drawn)
normalized growth (locus YKL009W, strain mrt4, active compounds read low): inconclusive: 1.4 [resistant]
